Assay results taken from publication PMC4336329 (PLoS ONE, 2015).
Screen size: about 310,000 compounds; about 14,000 (4.5%) showed an effect of 50% or more. Effects have a minus sign here. This is one part of the list.

Target: human ether-à-go-go-related gene (hERG) potassium channel (human, UniProt Q12809)
Assay: primary screen, population patch clamp on CHO cells stably expressing hERG
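Note: peak tail current of the secondary pulse compared with the same well before compound.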

Chain of human ether-à-go-go-related gene (hERG) potassium channel (Q12809 whole entry, looked up): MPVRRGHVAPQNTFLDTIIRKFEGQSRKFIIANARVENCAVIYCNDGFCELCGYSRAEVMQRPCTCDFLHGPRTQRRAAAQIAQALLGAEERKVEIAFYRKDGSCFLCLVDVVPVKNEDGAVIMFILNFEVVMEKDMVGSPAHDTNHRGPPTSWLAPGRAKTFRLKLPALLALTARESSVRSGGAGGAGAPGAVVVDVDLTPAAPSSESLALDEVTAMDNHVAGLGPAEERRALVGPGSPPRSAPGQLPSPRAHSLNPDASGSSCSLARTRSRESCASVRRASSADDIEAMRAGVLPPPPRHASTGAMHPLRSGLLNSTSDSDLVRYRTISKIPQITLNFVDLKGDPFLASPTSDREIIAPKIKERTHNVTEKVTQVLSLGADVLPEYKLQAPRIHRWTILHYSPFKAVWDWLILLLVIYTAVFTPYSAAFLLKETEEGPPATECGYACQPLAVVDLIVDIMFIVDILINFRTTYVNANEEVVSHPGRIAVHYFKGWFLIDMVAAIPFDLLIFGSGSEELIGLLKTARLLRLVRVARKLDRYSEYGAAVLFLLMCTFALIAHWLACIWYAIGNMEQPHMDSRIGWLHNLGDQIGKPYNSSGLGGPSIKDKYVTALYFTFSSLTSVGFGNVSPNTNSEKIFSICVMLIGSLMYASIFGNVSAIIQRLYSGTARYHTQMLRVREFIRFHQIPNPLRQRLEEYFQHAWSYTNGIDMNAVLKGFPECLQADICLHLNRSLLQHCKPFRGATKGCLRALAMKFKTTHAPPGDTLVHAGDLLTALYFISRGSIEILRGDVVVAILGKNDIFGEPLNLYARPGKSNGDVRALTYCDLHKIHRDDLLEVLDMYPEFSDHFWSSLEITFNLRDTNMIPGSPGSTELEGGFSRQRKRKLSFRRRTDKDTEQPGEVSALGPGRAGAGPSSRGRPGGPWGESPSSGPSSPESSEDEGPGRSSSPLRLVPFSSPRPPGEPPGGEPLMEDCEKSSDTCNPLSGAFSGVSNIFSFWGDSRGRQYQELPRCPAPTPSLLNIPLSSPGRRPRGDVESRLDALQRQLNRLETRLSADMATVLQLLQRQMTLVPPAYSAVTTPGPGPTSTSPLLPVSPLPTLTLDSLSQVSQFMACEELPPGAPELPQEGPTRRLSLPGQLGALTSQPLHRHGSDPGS

In order of rising “hERG current change (%, negative = inhibition) at 10uM” value:
1. CC(=O)c1cccc(Nc2cc(C)nc3c(C)cccc23)c1.Cl  -72.8%
2. O=C(Cc1ccc(Cl)cc1)Nc1ccccc1N1CCN(C(=O)c2ccccc2)CC1  -72.1%
3. Cc1sc2nc(CN3CCCC3)nc(N3CCN(S(=O)(=O)c4cccs4)CC3)c2c1C  -70.7%
4. Cl.OCCCN1CCN(CCCOc2ccccc2-c2ccccc2)CC1  -69.6%
5. Cc1cc(NC(=S)N(CCCN2CCN(C)CC2)Cc2ccco2)ccc1Cl  -68.2%
6. O=C(CCC1CCCCC1)N1CCN(Cc2ccc3c(c2)OCO3)CC1  -67.2%
7. Cc1cc2nc3n(c2cc1C)CC1CC(C(=O)NCCc2cccs2)N(C)C31 (centres unmarked)  -38.5%
8. Cn1c(=O)c2c(nc(SCCN3CCOCC3)n2Cc2ccccc2Cl)n(C)c1=O  -36.8%
9. COC(=O)c1c(NC(=O)C(C)(C)C)sc2c1CCN(Cc1ccccc1)C2.Cl  -34.7%
10. Cc1ccc(CNC(=O)CN(Cc2ccccc2)S(C)(=O)=O)cc1  -30%
11. COc1ccc(-c2nnn(CC(=O)N(CC(=O)NC3CCCC3)c3ccccc3)n2)cc1OC  -23.9%
12. COc1ccc(N2CCN(Cc3nc4c(c(=O)n(C)c(=O)n4C)n3C(C)C(C)=O)CC2)cc1 (centres unmarked)  -22.4%
13. COCC(=O)N1CCC(n2nnc3cc(C(F)(F)F)ccc32)CC1  -22%
14. CCn1c(SCC(=O)NCc2cccs2)nnc1-c1cccs1  -20.9%
15. CCOc1ccc(C(=O)Nc2cc(OC)ccc2OC)cc1  -20.6%
16. N#Cc1ccccc1S(=O)(=O)N1CCN(C(=O)CCC2CCCC2)CC1  -17.1%
17. O=C(CN(Cc1ccccc1Cl)C(=O)c1csnn1)NC1CCCC1  -13.6%
18. NC(=O)C1(N2CCCCC2)CCN(C(=O)c2ccccc2)CC1  -11.8%
19. COc1cc(CC(=O)Nc2ccccc2N2CCOCC2)cc(OC)c1OC  -11.5%
20. Cc1ccc(S(=O)(=O)c2c(CO)c(-c3ccccc3)nn2C)cc1  -9.95%
21. CCN(CC)c1ccc(/C=C2/C(=O)NC(=O)N(CC3CCCO3)C2=O)cc1 (centres unmarked)  -8.27%
22. CCOc1ccc(CCNC(=O)Cc2nn[nH]n2)cc1OCC  -5.13%
23. Cl.Oc1ccccc1CNCc1ccccc1  -4.43%
24. COc1ccc(CCN2C(=O)CSC2c2cccc([N+](=O)[O-])c2)cc1OC (centres unmarked)  -3.39%
25. COC(=O)c1ccc(/C=C/C(=O)c2cccc(OC)c2)cc1  -2.07%
26. COc1cccc(-c2nn(-c3ccc(C)cc3)cc2C(=O)N(C)CC(=O)Nc2cccc(F)c2)c1  0.34%
27. COc1ccc(/C=C(\NC(=O)c2ccco2)C(=O)N2CCOCC2)cc1  0.365%
28. CCCc1nn(C)c2c(=O)[nH]c(-c3cc(S(=O)(=O)N(CCO)CCO)ccc3OCC)nc12  0.59%
29. COc1ccc(CNC(=O)c2ccc(C(C)(C)C)cc2)cc1  0.683%
30. Cc1cc(C(=O)Nc2ccc(N3CCCCC3)cc2)no1  4.25%
31. C[C@H](NC(=O)C1(c2ccccc2)CCN(C(=O)OC(C)(C)C)CC1)C(=O)N[C@@H](C(=O)O)c1ccccc1  5.62%
32. COc1ccc(-c2nnc(NC(=O)c3ccccc3C)o2)cc1  5.87%
33. Cc1ccc(S(=O)(=O)c2nc(C)oc2N2CCOCC2)cc1  6.06%
34. CN1C(=O)c2cccc3c(S(=O)(=O)N4CCCC4C(=O)O)ccc1c23 (centres unmarked)  7.28%
35. COc1ccc([N+](=O)[O-])cc1NC(=O)c1ccc(N2C(=O)CCC2=O)cc1  7.55%
36. CC(=O)c1c(C)[nH]c(C(=O)OCc2ccc(F)cc2Cl)c1C  8.34%
37. Cc1c(C(=O)N2CCN(Cc3ccccc3)CC2)oc2c1C(=O)CC(C)(C)C2  8.43%
38. COc1ccc([C@H]2CC(=O)C=C(c3c(C)cc(C)cc3C)C2)cc1  8.65%
39. COc1ccc(CN(C(=O)c2ccc(C)cc2)c2cccc(N)c2)cc1  10%
40. COCc1ccc(C(=O)N2CCCC(Nc3ccc(F)c(F)c3)C2)s1 (centres unmarked)  11.9%
41. O=C(COc1cc2oc(=O)c3c(c2cc1Cl)CCCC3)NCC1CCC(C(=O)O)CC1 (centres unmarked)  12.2%
42. C=CCn1c(NCc2ccccc2O)nc2ccccc21  13.8%
43. CC(=O)Nc1ccccc1OCc1cnc(Cl)s1  15.1%
44. CC(C)(C)c1ccc(C(=O)Oc2ccccc2CCC(=O)O)cc1  15.9%
45. COc1ccc2cc(CN(CCO)C(=O)c3ccccc3F)c(=O)[nH]c2c1  16.2%
46. S=C1SCN(Cc2ccccn2)CN1Cc1ccco1  16.2%
47. Cc1ccn(C(=O)c2ccc(NC(=O)CC(C)C)cc2)n1  17.6%
48. CCCc1ccc(-c2cc(N)n[nH]2)cc1  18.9%
49. O=C(CCN1C(=O)/C(=C\c2ccco2)SC1=S)Nc1ccc(C(=O)O)c(O)c1  19.6%
50. CCC(NS(=O)(=O)c1ccc2c(c1)Cc1cc(S(=O)(=O)NC(CC)C(=O)O)ccc1-2)C(=O)O (centres unmarked)  20.5%
51. CC(C)(C)C(=O)NC(=S)Nc1ccc(C(F)(F)F)cc1  22.1%
52. CN(C(=O)COC(=O)c1ccc2ccccc2n1)C1CCS(=O)(=O)C1 (centres unmarked)  24.3%
53. CC12CC3(C)CC(C)(C1)CC(C(=O)NC(=S)N1CCCC1)(C2)C3  24.5%
54. O=C(CSc1nncn1-c1ccccc1)Nc1cc(F)ccc1F  25.6%
55. COc1cccc(/C=N/NC(=O)CNC(=O)C(c2ccccc2)c2ccccc2)c1O  26.9%
56. CCC(=O)NC(=S)Nc1cccc(-c2nc3ncccc3o2)c1  30%
